Laboratory results: PubChem BioAssay AID1476 (National Center for Advancing Translational Sciences (NCATS), 2009)
Among all 200,000 compounds or so, about 4,500 (2.2%) were called active. Inconclusive means that the source gave no clear call. Such entries were picked first, then a sample of the others. The call rests on the fitted dose curve; in most records, active means well fitted inhibition curve with a large enough effect; inconclusive means small, poorly fitted or top-dose-only effect, or effect the other way; inactive means flat fitted curve, though single readings scatter. A potency beside an inconclusive call is a rough fit, not a confirmed value.

target: Cruzipain (Trypanosoma cruzi) (UniProt P25779); assay: qHTS Assay for Promiscuous and Specific Inhibitors of Cruzain (without detergent); settings: purified cruzain, Z-FR-AMC fluorescence, no detergent; further: nearly all actives have a fitted effect of over 40% in size;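 on max response, negative = inhibition: plate controls were enzyme without inhibitor for no effect and buffer without enzyme for full effect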
Sequence of UniProt P25779 (P25779 whole entry, looked up): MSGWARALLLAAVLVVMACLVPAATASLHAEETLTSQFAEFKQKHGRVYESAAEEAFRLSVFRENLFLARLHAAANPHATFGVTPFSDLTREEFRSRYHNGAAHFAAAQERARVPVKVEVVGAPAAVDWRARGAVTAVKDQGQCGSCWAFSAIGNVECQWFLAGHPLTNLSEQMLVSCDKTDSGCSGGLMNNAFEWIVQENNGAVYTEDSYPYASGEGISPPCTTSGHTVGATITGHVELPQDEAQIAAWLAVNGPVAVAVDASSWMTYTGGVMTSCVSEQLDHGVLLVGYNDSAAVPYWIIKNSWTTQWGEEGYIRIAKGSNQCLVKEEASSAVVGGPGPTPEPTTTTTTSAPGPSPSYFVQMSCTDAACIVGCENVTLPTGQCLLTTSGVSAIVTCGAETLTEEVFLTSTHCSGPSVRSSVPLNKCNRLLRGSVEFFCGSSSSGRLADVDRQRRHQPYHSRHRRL
Outline: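 Detergent-free condition (0.00005% Triton X-100) in acetate buffer pH 5.5 with DTT. 1.5 nM enzyme and compound were pre-mixed 15 min, then 2 uM Z-FR-AMC substrate added; reaction progress from fluorescence change between first and third reads (60 s).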
Potency means the concentration at half of the fitted maximal effect; tags describe the fitted curve by direction and shape.

Compound | Potency | max response, negative = inhibition
CCOC(=O)c1c(C)sc(-c2c(-c3ccc4c(c3)OCCO4)[nH]c3c2c(=O)n(C)c(=O)n3C)c1O | inconclusive: 3.98 µM [activator, partial curve] | –
COc1ccc(NC(=O)CCC(=O)OCc2ccc(C(=O)Oc3ccc(Cl)cc3)cc2)cc1 | inconclusive: 20 µM [inhibitor, single point] | –
C[C@H]1[C@H](NC(=O)/C(=N/OC(C)(C)C(=O)O)c2csc(N)n2)C(=O)N1S(=O)(=O)O (stereo in doubt) | – | inactive: -5.37%
O=C1NC(=S)N/C1=C\c1cccc([N+](=O)[O-])c1 | inconclusive: 39.8 µM [inhibitor, single point] | –
COc1ccc(-c2noc(C3CCCN(S(=O)(=O)c4cccc(Cl)c4)C3)n2)cc1OC (stereo not given) | inconclusive: 39.8 µM [activator, single point] | –
CCOc1ccc(CNC(=O)c2cccc(NC(=O)N3CCSc4ncccc43)c2)cc1 | – | inactive: -2.07%
Oc1ccc(Br)cc1-c1cc(-c2ccc(Cl)cc2)n[nH]1 | active: 31.6 µM | –
CCn1c(C(=O)N2CCC(C(=O)N3CCN(c4cc(C)ccc4C)CC3)CC2)cc2sccc21 | inconclusive: 31.6 µM [activator, single point] | –
COc1ccc(CNC(=O)c2ccc3nc(CCc4ccccc4)oc3c2)cc1OC | inconclusive: 31.6 µM [activator, single point] | –
CCOC(=O)c1c(NC(=O)Cn2nc([N+](=O)[O-])c(Br)c2C)sc2c1CCC(C)C2 (stereo not given) | active: 12.6 µM | –
COc1cc2cc3c4c(cc(OC)c(OC)c4c2cc1OC)CCN3C | inconclusive: 39.8 µM [activator, single point] | –
Cc1ccc(/C(N)=N/OC(=O)c2ccc(F)cc2)cc1 | inconclusive: 39.8 µM [inhibitor, single point] | –
CC1=NN(c2nc(-c3ccc(C)cc3)cs2)C(=O)C1N=Nc1ccc2ccccc2c1 (stereo not given) | active: 3.16 µM | –
COc1cc(CN2CC(=O)N(c3ccc(C)c(C)c3)C2=S)cc(OC)c1OC | inconclusive: 31.6 µM [activator, single point] | –
COc1cc2c(cc1NC(=O)CN1CCN(S(=O)(=O)c3ccc(F)cc3)CC1)oc1ccccc12 | inconclusive: 25.1 µM [inhibitor, single point] | –
C=CCn1c(COc2ccc(Cl)cc2)nnc1SCC(=O)NCC(=O)OCC | inconclusive: 25.1 µM [activator, partial curve] | –
Cc1ccc2nc3c(c(N)c2c1)CCN3c1ccccc1 | inconclusive: 31.6 µM [activator, single point] | –
COc1cc(C(=O)N2CCN(C(=O)COc3ccc4ccccc4c3)CC2)cc(OC)c1OC | inconclusive: 25.1 µM [activator, partial curve] | –
Cc1cc2n(c1)CCn1c(C)ccc1-2 | inconclusive: 39.8 µM [activator, single point] | –
CCc1nnc(NC(=O)[C@@H](NC(=O)c2cccc(S(=O)(=O)N3CCOCC3)c2)C(C)C)s1 | inconclusive: 39.8 µM [activator, single point] | –

Compound | Potency | max response, negative = inhibition
COc1ccc2[nH]c(C)c(CCN3C(=O)C4C5C=CC(C5)C4C3=O)c2c1 (stereo not given) | – | inactive: -8.96%
COc1ccc(S(=O)(=O)Cc2ccc(C(=O)N3CCOCC3)o2)cc1 | inconclusive: 39.8 µM [inhibitor, single point] | –
CCc1c(C)[nH]n(-c2ccc(Oc3ccccc3)c(S(=O)(=O)O)c2)c1=O | inconclusive: 25.1 µM [activator, partial curve] | –
CCc1ccccc1NC(=O)Nc1nnc(N(C)Cc2ccccc2)s1 | – | inactive: -7.61%
CCOC(=O)N1CCC(NC(=O)C2CCN(C(=O)N3CC(C)Oc4ccc(C)cc43)CC2)CC1 (stereo not given) | inconclusive: 31.6 µM [activator, partial curve] | –
O=C(Cn1c(=O)oc2ccccc21)Nc1nc(-c2ccc(Br)cc2)cs1 | active: 15.8 µM | –
COc1ccc(-c2nc(C#N)c(N3CC(C)OC(C)C3)o2)cc1OC (stereo not given) | – | inactive: 9.05%
Cc1ccc2c(c1)N(C(=O)C1CCN(S(=O)(=O)c3c(C)noc3/C=C/c3ccccc3F)CC1)CCO2 | active: 12.6 µM | –
Cc1ccc(CNC(=O)c2ccc3c(c2)N(Cc2ccccc2)C(=O)c2ccccc2S3(=O)=O)cc1 | inconclusive: 39.8 µM [inhibitor, single point] | –
Cc1ccccc1-n1c(C)cc(/C=N/Nc2ccc([N+](=O)[O-])cn2)c1C | inconclusive: 12.6 µM [inhibitor, partial curve, poor fit] | –
O=C(CNC(=O)c1ccc(Cl)cc1)N/N=C/C=C/c1ccccc1 | inconclusive: 31.6 µM [inhibitor, single point] | –
O=C(Nc1cccc(Cl)c1)N1CCC(CN2CCOCC2)CC1 | – | inactive: -0.901%
Cc1cc(NC(=O)CN2CC(C)OC(C)C2)n(-c2nc3ccccc3s2)n1 (stereo not given) | inconclusive: 31.6 µM [activator, single point] | –
CCCCN(CC)C(=O)c1cc2c(=O)n3ccccc3nc2n1C | – | inactive: -9.45%
Cc1nn(C)c2c1c(C(F)(F)F)cc(=O)n2CC(=O)N1CCCCC1C (stereo not given) | inconclusive: 25.1 µM [activator, single point] | –
Cc1coc(NC(=O)CSc2nc(-c3ccc(Cl)cc3)cc(C(F)(F)F)c2C#N)n1 | inconclusive: 25.1 µM [inhibitor, single point] | –
c1ccc(Nc2ncncc2-c2ccoc2)cc1 | – | inactive: 10%
COCc1c(C(=O)OCC(=O)c2c(N)n(CC(C)C)c(=O)n(C)c2=O)oc2ccccc12 | inconclusive: 31.6 µM [activator, single point] | –
Cc1c(C(=O)Nc2ccc(F)c(Cl)c2)oc2ccc(S(=O)(=O)N(C)C3CCCCC3)cc12 | inconclusive: 3.98 µM [inhibitor, single point] | –
COc1cc(-c2noc(-c3ccc(NCc4ccco4)c([N+](=O)[O-])c3)n2)cc(OC)c1OC | inconclusive: 39.8 µM [inhibitor, single point] | –
